# According to ChEMBL document CHEMBL5606460, “ASAP - DENV-2 NS2B-NS3 protease fluorescence single point” (2024):
# Out of some 2,000 compounds screened, about 110 (5.5%) showed an effect of 50% or more. This is one part of the list.
# Biological target: Genome polyprotein (dengue virus type 2) (UniProt P29990)
# [1] = Thailand/16681/1984, Concentration 25.0 uM, Number of replicates 1.0
compound,measurement,setting,value
COc1ccc(CN2CCC(c3c[nH]c4cccnc34)CC2)cc1,inhibition,"Thailand/16681/1984, Concentration 49.5 uM, Number of replicates 2.0, Standard deviation 1.0599295140140363 %",-5.96%
same,inhibition,"Thailand/16681/1984, Concentration 99.01 uM, Number of replicates 2.0, Standard deviation 2.601239089707855 %",-4.03%
same,inhibition,"Thailand/16681/1984, Concentration 198.0 uM, Number of replicates 2.0, Standard deviation 1.953646229576449 %",-2.13%
Cc1cnccc1NC(=O)c1cc(C)n(-c2ccccn2)n1,inhibition,"Thailand/16681/1984, Concentration 49.5 uM, Number of replicates 2.0, Standard deviation 5.212715901800097 %",-3.94%
same,inhibition,"Thailand/16681/1984, Concentration 99.01 uM, Number of replicates 2.0, Standard deviation 5.225272038027372 %",-2.71%
same,inhibition,"Thailand/16681/1984, Concentration 198.0 uM, Number of replicates 2.0, Standard deviation 4.995398574389316 %",-1.97%
Cc1cnccc1NC(=O)Cc1csc(Cc2ccccc2)n1,inhibition,"Thailand/16681/1984, Concentration 49.5 uM, Number of replicates 2.0, Standard deviation 3.934890489512347 %",-2.65%
same,inhibition,"Thailand/16681/1984, Concentration 99.01 uM, Number of replicates 2.0, Standard deviation 4.001534498297198 %",-2%
same,inhibition,"Thailand/16681/1984, Concentration 198.0 uM, Number of replicates 2.0, Standard deviation 7.670814768777193 %",-0.908%
O=Cc1ccc(N2CCC(C(=O)N[C@@H](Cn3ccnc3)c3ccccc3)CC2)cc1,inhibition,[1],12.1%
O=C(O)c1cc(Cl)ccc1NS(=O)(=O)c1ccc(Oc2ccccc2Cl)cc1,inhibition,"Thailand/16681/1984, Concentration 49.5 uM, Number of replicates 2.0, Standard deviation 0.09788858447746204 %",95.7%
same,inhibition,"Thailand/16681/1984, Concentration 99.01 uM, Number of replicates 2.0, Standard deviation 0.14802782416517393 %",94.6%
same,inhibition,"Thailand/16681/1984, Concentration 198.0 uM, Number of replicates 2.0, Standard deviation 0.06255266668592849 %",91.9%
O=Cc1ccc(N2CCC(C(=O)N3CCC(Oc4ccccc4)CC3)CC2)cc1,inhibition,[1],14.2%
CCOC(=O)c1coc(Cn2ncc(C3CCNCC3)c2C)n1,inhibition,"Thailand/16681/1984, Concentration 49.5 uM, Number of replicates 2.0, Standard deviation 0.4930753063793731 %",-2.17%
same,inhibition,"Thailand/16681/1984, Concentration 99.01 uM, Number of replicates 2.0, Standard deviation 0.1500208643375571 %",-2.76%
same,inhibition,"Thailand/16681/1984, Concentration 198.0 uM, Number of replicates 2.0, Standard deviation 1.3014042770263519 %",-1.62%
c1ccc2c([C@H]3CCN(Cc4nc[nH]n4)C3)c[nH]c2c1,inhibition,"Thailand/16681/1984, Concentration 49.5 uM, Number of replicates 2.0, Standard deviation 0.3403469284934762 %",-6.54%
same,inhibition,"Thailand/16681/1984, Concentration 99.01 uM, Number of replicates 2.0, Standard deviation 0.28413820544540747 %",-5.92%
same,inhibition,"Thailand/16681/1984, Concentration 198.0 uM, Number of replicates 2.0, Standard deviation 0.5007224305731898 %",-4.6%
CCc1ccc([N+](=O)[O-])cc1NC(=O)C1CCN(c2ccc(C=O)cc2)CC1,inhibition,[1],14%
N#Cc1ccc(N2CCN(C(=O)C3CCN(c4ccc(C=O)cc4)CC3)CC2)nc1,inhibition,[1],12.9%
Cc1nn(Cc2cn(-c3ccccc3)nn2)cc1C1CCNCC1,inhibition,"Thailand/16681/1984, Concentration 49.5 uM, Number of replicates 2.0, Standard deviation 0.6922388903184505 %",-4.44%
same,inhibition,"Thailand/16681/1984, Concentration 99.01 uM, Number of replicates 2.0, Standard deviation 2.187102807540658 %",-3.07%
same,inhibition,"Thailand/16681/1984, Concentration 198.0 uM, Number of replicates 2.0, Standard deviation 0.8904422004610557 %",-3.77%
O=Cc1ccc(N2CCC(C(=O)NCc3noc(-c4cccs4)n3)CC2)cc1,inhibition,[1],13.1%
COc1cc(Cc2ccc3[nH]ncc3c2)nc(N2CCNCC2)n1,inhibition,"Thailand/16681/1984, Concentration 49.5 uM, Number of replicates 2.0, Standard deviation 0.6540005719510628 %",-2.62%
same,inhibition,"Thailand/16681/1984, Concentration 99.01 uM, Number of replicates 2.0, Standard deviation 0.7936485911079066 %",-2.08%
same,inhibition,"Thailand/16681/1984, Concentration 198.0 uM, Number of replicates 2.0, Standard deviation 0.5575261301449747 %",-0.486%
CC(C)(C)[C@H](NC(=O)C1CCN(c2ccc(C=O)cc2)CC1)c1ccccc1,inhibition,[1],11.9%
O=Cc1ccc(N2CCC(C(=O)NCc3ccccc3OC(F)(F)F)CC2)cc1,inhibition,[1],12.7%
C=CCN(Cc1ccc(F)cc1)C(=O)C1CCN(c2ccc(C=O)cc2)CC1,inhibition,[1],15.3%
O=Cc1ccc(N2CCC(C(=O)Nc3ccccc3-c3ccccc3)CC2)cc1,inhibition,[1],12.8%
O=C(OCc1ccccc1)N1C[C@@H](O)[C@H](c2c[nH]c3ccccc23)C1,inhibition,"Thailand/16681/1984, Concentration 49.5 uM, Number of replicates 2.0, Standard deviation 1.2469984697170335 %",4.73%
same,inhibition,"Thailand/16681/1984, Concentration 99.01 uM, Number of replicates 2.0, Standard deviation 0.5609054328484417 %",7.82%
same,inhibition,"Thailand/16681/1984, Concentration 198.0 uM, Number of replicates 2.0, Standard deviation 1.6111806211551787 %",8.93%
COc1cc(CS(=O)(=O)C2CCN(C(=O)OCc3ccccc3)CC2)nc(N2CCNCC2)n1,inhibition,"Thailand/16681/1984, Concentration 49.5 uM, Number of replicates 2.0, Standard deviation 0.29373022757389566 %",0.45%
same,inhibition,"Thailand/16681/1984, Concentration 99.01 uM, Number of replicates 2.0, Standard deviation 0.01950977617569285 %",1.39%
same,inhibition,"Thailand/16681/1984, Concentration 198.0 uM, Number of replicates 2.0, Standard deviation 0.5126730851747567 %",2.52%
Cc1cnccc1NC(=O)c1coc2c1C(=O)NCCC2,inhibition,"Thailand/16681/1984, Concentration 49.5 uM, Number of replicates 2.0, Standard deviation 0.3757002107865962 %",-3.99%
same,inhibition,"Thailand/16681/1984, Concentration 99.01 uM, Number of replicates 2.0, Standard deviation 5.049623529571674 %",-2.36%
same,inhibition,"Thailand/16681/1984, Concentration 198.0 uM, Number of replicates 2.0, Standard deviation 1.011909544309998 %",-1.68%
Cc1cc(CO)c2cccc(Cc3cccc(C(=O)N4C[C@H](O)C[C@H]4C(=O)O)c3)c2n1,inhibition,"Thailand/16681/1984, Concentration 49.95 uM, Number of replicates 2.0, Standard deviation 0.8573518667581825 %",-3.82%
same,inhibition,"Thailand/16681/1984, Concentration 99.9 uM, Number of replicates 2.0, Standard deviation 0.6640344089557785 %",-0.89%
COc1cc(C(=O)Nc2cnc3ccccc3c2)nc(N2CCNCC2)n1,inhibition,"Thailand/16681/1984, Concentration 49.5 uM, Number of replicates 2.0, Standard deviation 9.540542197549359 %",4.46%
same,inhibition,"Thailand/16681/1984, Concentration 99.01 uM, Number of replicates 2.0, Standard deviation 4.349736840709832 %",6.31%
same,inhibition,"Thailand/16681/1984, Concentration 198.0 uM, Number of replicates 2.0, Standard deviation 5.514135579540427 %",7.41%
